In the antibiotic and cytotoxicity screens of Wong et al. (2023):
The other results are listed elsewhere or left out.

Experiments:
HSkMC = human skeletal muscle cells; experiment: cytotoxicity call (relative viability < 0.9); settings: 10 µM
HepG2 = experiment: cytotoxicity call (relative viability < 0.9); settings: 10 µM
S. aureus RN4220 = experiment: growth inhibition call (relative growth <= 0.2); settings: 50 µM

Structure (SMILES)	cytotoxicity call (HSkMC)	cytotoxicity call (HepG2)	growth inhibition call (S. aureus RN4220)
Cc1noc(C)c1NC(=O)Nc1ccc2c(c1)C(=O)N([C@H](C)CO)C[C@H](C)[C@H](CN(C)C(=O)Nc1c(C)noc1C)OCCCC[C@H](C)O2	inactive	inactive	inactive
N[C@@H](Cc1ccc(O)cc1)C(=O)O	inactive	inactive	inactive
C[C@H]1CCCCO[C@H](CN(C)C(=O)Nc2ccc(C(F)(F)F)cc2)[C@@H](C)CN([C@@H](C)CO)C(=O)c2cc(NC(=O)Nc3ccccc3)ccc2O1	inactive	inactive	inactive
COc1ccc(S(=O)(=O)Nc2ccc3c(c2)C(=O)N([C@H](C)CO)C[C@@H](C)[C@@H](CN(C)S(=O)(=O)c2ccc(C)cc2)O3)cc1	inactive	inactive	inactive
N#C[C@@H]1N[C@H](CO)[C@@H]1c1ccccc1	inactive	inactive	inactive
C[C@H]1CN([C@@H](C)CO)C(=O)Cc2cc(NS(=O)(=O)c3cn(C)cn3)ccc2O[C@H]1CN(C)Cc1ccc(C(=O)Nc2ccccc2N)cc1	inactive	inactive	inactive
Cc1ccc(S(=O)(=O)Nc2ccc3c(c2)C(=O)N([C@@H](C)CO)C[C@@H](C)[C@H](CN(C)C(=O)Nc2ccc(C(F)(F)F)cc2)O3)cc1	inactive	inactive	inactive
CC(C)COC(=O)CNc1n[nH]c(=O)[nH]c1=O	inactive	inactive	inactive
C[C@@H]1CN([C@@H](C)CO)C(=O)Cc2cc(NS(=O)(=O)c3ccccc3)ccc2O[C@@H]1CN(C)S(=O)(=O)c1ccccc1	inactive	inactive	inactive
C[C@@H]1CN([C@@H](C)CO)C(=O)c2cc(NS(=O)(=O)c3cccs3)ccc2O[C@@H](C)CCCCO[C@@H]1CN(C)Cc1ccc(C(F)(F)F)cc1	inactive	inactive	inactive
Cc1ccc(C=Nn2nnnc2N)s1	inactive	inactive	inactive
COc1ccc(CN(C)C[C@@H]2OCCCC[C@H](C)Oc3ccc(NC(=O)c4ccccc4)cc3C(=O)N([C@H](C)CO)C[C@@H]2C)cc1	inactive	inactive	inactive
COc1ccc(S(=O)(=O)N(C)C[C@@H]2OCCCC[C@H](C)Oc3ccc(NC(=O)Nc4ccc(F)cc4)cc3C(=O)N([C@H](C)CO)C[C@H]2C)cc1	inactive	inactive	inactive
COc1ccc(NC(=O)Nc2cccc3c2O[C@H](CN(C)CC2CCCCC2)[C@H](C)CN([C@@H](C)CO)C3=O)cc1	inactive	inactive	inactive
C[C@H]1CN([C@@H](C)CO)C(=O)Cc2cc(NS(=O)(=O)c3ccccc3)ccc2O[C@@H]1CN(C)Cc1ccc(C(=O)O)cc1	inactive	inactive	inactive
O=C(C[C@@H]1CC[C@H]2[C@@H](COC[C@@H](O)CN2C(=O)Nc2ccc(Cl)c(Cl)c2)O1)NCc1ccc(Cl)c(Cl)c1	inactive	active	inactive
CCOP(=O)(CC(=O)O[C@H]1[C@@H]2OC(=O)[C@@H](Cc3ccc4ccccc4c3)C/C=C\C[C@H](Cc3ccc4ccccc4c3)C(=O)O[C@H]2[C@@H](OC)O[C@@H]1COC(=O)NCCCCCC(=O)NO)OCC	inactive	inactive	inactive
Cc1noc(C)c1S(=O)(=O)N(C)C[C@@H]1Oc2ccc(NC(=O)Nc3ccccc3)cc2CC(=O)N([C@H](C)CO)C[C@@H]1C	inactive	inactive	inactive
CO[C@H]1CN(C)C(=O)c2ccc(NS(C)(=O)=O)cc2OC[C@H](C)N(C(=O)C2CCCCC2)C[C@@H]1C	inactive	inactive	inactive
COc1ccc2nccc(Cl)c2c1	inactive	inactive	inactive
Cc1nccn1CCC(=O)O	inactive	inactive	inactive
C[C@H](CO)N1C[C@H](C)[C@@H](CN(C)C(=O)c2cccnc2)Oc2ncc(-c3ccc(C(=O)N(C)C)cc3)cc2C1=O	inactive	inactive	inactive
C[C@H](CO)N1C[C@H](C)[C@@H](CN(C)S(=O)(=O)c2ccc(Cl)cc2)OCCCC[C@H](C)Oc2ccc(NC(=O)Nc3ccc(F)cc3)cc2C1=O	inactive	inactive	inactive
O=C(CCCCCNC(=O)OCCCCO[C@H]1C[C@H]2C(I)=C[C@@H]1C(=O)[C@]21CCCO1)NO	inactive	inactive	inactive
C[C@H](NC(=O)N(C)C[C@@H]1OCc2ccccc2-c2c(n(C)c3ccccc23)C(=O)N([C@H](C)CO)C[C@H]1C)c1ccccc1	inactive	inactive	inactive
Cn1c(=O)c2c(ncn2CC2OCCO2)n(C)c1=O	inactive	inactive	inactive
O=C(CCNNC(=O)c1ccncc1)NCc1ccccc1	inactive	inactive	inactive
COc1ccc(NC(=O)N(C)C[C@@H]2OCCCC[C@H](C)Oc3ccc(NC(=O)Cc4ccccc4)cc3C(=O)N([C@H](C)CO)C[C@H]2C)cc1	inactive	inactive	inactive
